According to PubChem BioAssay (NCI):
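Five concentrations, 48 hours, 96-well plates. Here, GI50 denotes the concentration required for 50% inhibition of growth. TGI marks complete inhibition of growth.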

Tested on: NCI-H322M lung
Assay: growth of human tumour cells (NCI), 48 h

For `CC(=C(c1ccc(OCCN2CCCCCC2)cc1)c1ccc(OCCN2CCCCCC2)cc1)c1ccc(Cl)cc1`, the GI50 was 4.91 µM and the TGI was 9.94 µM.
`OCc1[nH]nc2cc(Nc3ncc4ccc(Br)c(OC5CCC(O)CC5)c4n3)ccc12` (stereo not given) gave a GI50 of 0.0393 µM and a TGI of 2.06 µM.
For `CN(C)c1nc(NCCNS(=O)(=O)c2ccc(C3=Nc4c(N)nc(N)nc4NC(c4ccc(Cl)cc4)C3)cc2)nc(Nc2ccc(F)cc2)n1` (stereo not given), the GI50 was > 100 µM and the TGI was > 100 µM.
`O=C(Nc1ccc(Cl)c(C(F)(F)F)c1)c1cncc(C#Cc2cnc3ccc(N4CCOCC4)nn23)c1` showed a GI50 of 2.45 µM and a TGI of 16.9 µM.
For `Cc1ccc(C2CC(c3ccc(NC(=O)Nc4ccccc4)cc3)=NN2c2ccc(S(N)(=O)=O)cc2)cc1` (stereo not given), the GI50 was 8.4 µM and the TGI was 20.7 µM.
